How the values were obtained:
[1] = tested on: A/Scotland/20/74 (H3N2) virus; test: Survival of IAV-infected C57Bl/6 mice, comparison with oseltamivir; settings: for efficacy when administered at a distance from the infection: administered 4 days post infection; for body weight of surviving mice: after 15 days; for effect on survival: treatment 2 days post-infection, C57Bl/6, CA 30 mg/kg, Osel 20 mg/kg intranasal
[2] = tested on: A/Scotland/20/74 (H3N2) virus
[3] = tested on: A/Scotland/20/74 (H3N2) virus; settings: IAV 100 pfu, 30 mg/kg CA intranasally 20 minutes post-infection
[4] = tested on: A/Scotland/20/74 (H3N2) virus; remark: listed apart in the source
[5] = tested on: A/Scotland/20/74 (H3N2) virus; remark: listed apart in the source
[6] = tested on: A/Scotland/20/74 (H3N2) virus; test: IAV-infected C57Bl/6 mice: viral load, BAL mediators, immune cells
[7] = tested on: A/Scotland/20/74 (H3N2) virus; test: IAV-infected NF-kB transgenic Balb/c mice: bioluminescence, histopathology, survival, weight
[8] = tested on: A/Scotland/20/74 (H3N2) virus; remark: listed apart in the source
[9] = tested on: A/Scotland/20/74 (H3N2) virus; test: RT-qPCR of M1 viral mRNA in BEAS-2B cells; settings: 6 h pi
[10] = treated at 20 minutes post-infection
[11] = treated at 20 minutes post-infection, intranasal, CA 30 mg/kg, Osel 20 mg/kg
[12] = 0.6 mg CA 2 days post-infection, day 8 p.i.
[13] = 0.6 mg CA 2 days pi, histopathology at 8 days pi
[14] = Balb/c, IAV 300 PFU, 0.6 mg CA intranasally 2 days pi

Question: How did the “efficacy when administered at a distance from the infection” value [1] turn out when `CCOC(=O)C1=C[C@@H](OC(CC)CC)[C@H](NC(C)=O)[C@@H](N)C1` [oseltamivir, reference compound] was run?
Answer: ineffective

Question: What about the “body weight of surviving mice” value [1, 10] of the same molecule?
Answer: returned to their original weight

Question: And the survival rate [1, 11]?
Answer: 90%

Question: And the effect on survival [1]?
Answer: nullified

Question: `O=C(O)/C=C(/CC(=O)O)C(=O)O` [cis-aconitate] was tested. Which “reduction of NA activity in cell supernatants” value [2] did it give?
Answer: 60 fold

Question: What about the “survival patterns in CAD−/− mice” value [3] of the same molecule?
Answer: closely mirrored those in wild-type mice

Question: What about the “viral protein expression of NP, NS1, and PA” value [4] of the same molecule?
Answer: drastically decreases

Question: What about the “antiviral and anti-inflammatory properties with CAD siRNA” value [5] of the same molecule?
Answer: conserved

Question: What about the “relative expression of 50 mediators in BAL” value ([6]; 0.6 mg CA 2 days post-infection, day 4 p.i.) of the same molecule?
Answer: markedly reduced

Question: And the alveolar macrophage numbers [6, 12]?
Answer: comparable to non-infected conditions

Question: And the “decrease of neutrophil recruitment” value [6, 12]?
Answer: two-thirds

Question: And the “activation of NKT, DC, alveolar macrophages, and T cells” value ([6]; 0.6 mg CA 2 days post-infection, day 8 p.i., versus infected non-treated mice)?
Answer: significantly lower

Question: What about the “reduction in viral load in lung tissues” value ([6]; 0.6 mg CA intranasally 2 days post-infection, day 4 p.i.) of the same molecule?
Answer: 1 log

Question: What about the “IAV-triggered inflammation (NF-kB activity, bioluminescence)” value ([7]; 0.6 mg CA 2 days pi, 8 days post-infection) of the same molecule?
Answer: drastically reduced

Question: And the “IAV-induced alveolar wall thickening, hyaline membrane formation, and epithelial necrosis” value [7, 13]?
Answer: significant reduction

Question: What about the inflammation score [7, 13] of the same molecule?
Answer: reduced

Question: And the lung congestion [7, 13]?
Answer: diminished

Question: What about the survival rate [7, 14] of the same molecule?
Answer: 90%

Question: And the “weight loss of IAV-infected animals” value [7, 14]?
Answer: mitigating weight loss

Question: What about the effect on survival ([7]; treatment 2 days post-infection, Balb/c mice) of the same molecule?
Answer: persisted

Question: And the NA activity [8]?
Answer: significantly decreased

Question: What about the “relative expression of viral matrix 1 (M1) mRNA” value [9] of the same molecule?
Answer: tenfold

Question: What about the “efficacy when administered at a distance from the infection” value [1] of the same molecule?
Answer: effective

Question: What about the “body weight of surviving mice” value [1, 10] of the same molecule?
Answer: returned to their original weight

Question: And the survival rate [1, 11]?
Answer: 80%

Question: And the survival rate ([1]; treated day 4 and day 5 post-infection, 30 mg/kg intranasal)?
Answer: 50%

Question: And the effect on survival [1]?
Answer: persisted

Question: How did the “reduction of NA activity in cell supernatants” value [2] turn out when `C=C(CC(=O)O)C(=O)O` [itaconate, reference compound] was run?
Answer: 4.8 fold

Reference: patent US20260199274A1 (priority 2022, published 2026)
